At least one read-out could not be matched to a standard name with certainty.
Test system: promoter region of the gene encoding human apoAI
Experiment: Activity to enhance the expression of human apoAI (apoAI promoter-luciferase reporter in HepG2 cells)
Assay type: cell-based
Details: HepG2 cells stably expressing apoAI promoter-luciferase reporter; compounds at 0 to 10 μg/mL, 24 hours incubation
Description: The promoter region of the gene encoding human apoAI was isolated, and ligated upstream the structure gene of firefly luciferase to construct a reporter plasmid. The reporter plasmid and a marker plasmid conferring the neomycin resistance were co-infected to cell lines derived from human hepatoma, HepG2 cells, and the cell lines were incubated in a selection medium comprising DMEM medium containing 10% fetal calf serum supplemented with G418 (Final concentration: 0.7 mg/mL, Gibco) to give established strains that stably expressed the reporter molecule. The strains were seeded to a 96-well culture plates at a density of 50,000 cells per well, and incubated for 48 hours at 37° C. under an atmosphere of 5% carbon dioxide. […] The concentration of the compounds, which intensified the luciferase activity twice compared to that of control (DMSO without any compound of the invention added) was set as the minimal effective dose (MED).

Structure (SMILES) | MED (minimum effective dose: concentration of the compound which intensified the luciferase activity twice compared to control)
COc1ccc(-c2cnc3ccccc3n2)cc1 [Ia-3, 2-(4-methoxyphenyl)quinoxaline] | 0.12 µg/mL
c1ccc2nc(-c3ccsc3)cnc2c1 [Ia-6, 2-(thiophen-3-yl)quinoxaline] | 1.5 µg/mL
c1ccc(-c2ccc3ccccc3n2)cc1 [Ia-13, 2-phenylquinoline] | 0.5 µg/mL
COc1ccc(-c2ccc3ccccc3n2)cc1 [Ia-14, 2-(4-methoxyphenyl)quinoline] | 0.41 µg/mL
c1ccc2nc(-c3ccsc3)ccc2c1 [Ia-15, 2-(thiophen-3-yl)quinoline] | 0.57 µg/mL
Clc1ccc(-c2ccc3ccccc3n2)cc1 [Ia-16, 2-(4-chlorophenyl)quinoline] | 1.6 µg/mL
C(=Cc1ccccn1)c1ccccc1 [Ib-1, 2-styrylpyridine] | 1.1 µg/mL
Cn1cccc1C=Cc1ccccn1 [Ib-50, 2-[2-(1-methyl-1H-pyrrol-2-yl)vinyl]pyridine] | 1.2 µg/mL
C(=Cc1cnc2ccccc2n1)c1ccccc1 [Ib-56, 2-styrylquinoxaline] | 0.13 µg/mL
Cc1ccc(C=Cc2cnc3ccccc3n2)cc1 [Ib-57, 2-(2-p-tolylvinyl)quinoxaline] | 0.12 µg/mL
COC(=O)c1ccc(C=Cc2cnc3ccccc3n2)cc1 [Ib-58, methyl 4-(2-quinoxaline-2-yl-vinyl)-benzoate] | 0.3 µg/mL
N#Cc1ccc(C=Cc2cnc3ccccc3n2)cc1 [Ib-60, 4-(2-quinoxaline-2-yl-vinyl)benzonitrile] | 0.15 µg/mL
C(=Cc1cnc2ccccc2n1)c1ccc(-c2ccccc2)cc1 [Ib-61, 2-(2-biphenyl-4-yl-vinyl)quinoxaline] | 0.05 µg/mL
Fc1ccc(C=Cc2cnc3ccccc3n2)cc1 [Ib-64, 2-[2-(4-fluorophenyl)vinyl]quinoxaline] | 0.24 µg/mL
Clc1ccc(C=Cc2cnc3ccccc3n2)cc1 [Ib-65, 2-[2-(4-chlorophenyl)vinyl]quinoxaline] | 0.06 µg/mL
Brc1ccc(C=Cc2cnc3ccccc3n2)cc1 [Ib-66, 2-[2-(4-bromophenyl)vinyl]quinoxaline] | 0.1 µg/mL
COc1ccc(C=Cc2cnc3ccccc3n2)cc1 [Ib-67, 2-[2-(4-methoxyphenyl)vinyl]quinoxaline] | 0.08 µg/mL
Oc1ccc(C=Cc2cnc3ccccc3n2)cc1 [Ib-68, 4-(2-quinoxaline-2-yl-vinyl)phenol] | 0.2 µg/mL
Nc1ccc(C=Cc2cnc3ccccc3n2)cc1 [Ib-69, 4-(2-quinoxaline-2-yl-vinyl)phenylamine] | 0.1 µg/mL
CC(=O)Nc1ccc(C=Cc2cnc3ccccc3n2)cc1 [Ib-70, N-[4-(2-quinoxaline-2-yl-vinyl)phenyl]acetamide] | 0.07 µg/mL
C(=Cc1cnc2ccccc2n1)c1ccc(Oc2ccccc2)cc1 [Ib-72, 2-[2-(4-phenoxyphenyl)vinyl]quinoxaline] | 0.7 µg/mL
C(=Cc1ccco1)c1cnc2ccccc2n1 [Ib-73, 2-(2-furan-2-yl-vinyl)quinoxaline] | 1.5 µg/mL
C(=Cc1cnc2ccccc2n1)c1ccoc1 [Ib-75, 2-(2-furan-3-yl-vinyl)quinoxaline] | 0.28 µg/mL
C(=Cc1cnc2ccccc2n1)c1ccsc1 [Ib-77, 2-(2-thiophen-3-yl-vinyl)quinoxaline] | 1.3 µg/mL
CN(C)c1ccc(C=Cc2nc3ccccc3s2)cc1 [Ib-85, [4-(2-benzothiazole-2-yl-vinyl)phenyl]dimethylamine] | 0.02 µg/mL
C(=Cc1ccccn1)CCc1ccccc1 [Id-2, 2-(4-phenyl-but-1-enyl)pyridine] | 3.5 µg/mL
